From PubChem BioAssay AID1768 (National Center for Advancing Translational Sciences (NCATS), 2009)
“And” between values parts separate entries of the source, which are not always exact repeats. Identical values can stand only once. Among all 270,000 compounds or so, about 620 (0.23%) were called active. Inconclusive means that the source gave no clear call. Such entries were picked first, then a sample of the others. Calls follow the shape of the dose curve; as a rule, active = well fitted inhibition curve with a large enough effect in the polarisation, with a control signal flat (not every such curve was filed as active); inconclusive = small, poorly fitted or top-dose-only effect, or effect the other way, or a change in a side signal; inactive = no such curve, though single readings can be large or run the other way; the % refers to the polarisation. Where the call is inconclusive, the potency comes from a doubtful curve fit. “Side channel” marks fits to a control or component signal instead of the main read-out.

Biological target: Menin (Homo sapiens) (UniProt O00255)
Experiment: qHTS Assay for Inhibitors Targeting the Menin-MLL Interaction in MLL Related Leukemias: Competition With Texas Red Labeled MLL-derived Mutant Peptide; as to FP activity change, negative = inhibition: % of control where 0% means no effect
Conditions: fluorescence polarization; FP activity change, negative = inhibition: at 61.6 µM (top of the series)
Potency is read from the fitted curve at half-maximal effect; tags tell the direction and shape of the fitted curve or compound fluorescence and quenching.

UniProt O00255, sequence (O00255 whole entry, looked up): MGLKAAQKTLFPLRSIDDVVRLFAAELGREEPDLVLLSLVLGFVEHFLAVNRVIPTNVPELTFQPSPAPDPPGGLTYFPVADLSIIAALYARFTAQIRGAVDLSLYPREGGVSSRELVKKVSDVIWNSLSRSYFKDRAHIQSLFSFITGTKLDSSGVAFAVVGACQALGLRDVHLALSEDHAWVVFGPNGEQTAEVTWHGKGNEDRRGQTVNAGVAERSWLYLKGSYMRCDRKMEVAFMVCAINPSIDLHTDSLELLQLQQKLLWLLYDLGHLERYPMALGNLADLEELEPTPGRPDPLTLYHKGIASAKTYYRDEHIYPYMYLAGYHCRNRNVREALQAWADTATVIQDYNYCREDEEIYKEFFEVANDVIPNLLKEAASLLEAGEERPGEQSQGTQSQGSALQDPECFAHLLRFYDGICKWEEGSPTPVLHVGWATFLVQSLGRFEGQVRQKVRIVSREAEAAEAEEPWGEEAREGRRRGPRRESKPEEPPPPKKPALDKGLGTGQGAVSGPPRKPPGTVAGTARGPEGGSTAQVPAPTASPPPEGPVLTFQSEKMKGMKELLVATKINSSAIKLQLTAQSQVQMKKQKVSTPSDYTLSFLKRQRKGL

Potency, inconclusive:
N#C/C(=C1/CCCCCN1)c1nc2ccccc2[nH]1 31.6 µM [inhibitor, single point]
CCN(CC)CCOC(=O)c1ccc(NC(=O)c2cn(-c3ccccc3)nc2-c2cccs2)cc1 0.708 µM [quencher, side channel, full curve, poor fit]
COc1cc(-c2nc3c4ccccc4nc(=S)n3[nH]2)cc(OC)c1OC 11.2 µM [quencher, side channel, partial curve]
CCC(=O)Oc1ccc(C(=O)Nc2cccc(C(=O)NCC(C)C)c2)cc1 8.91 µM [inhibitor, partial curve]
O=C(CCN1CCOCC1)NC12CC3CC(CC(C3)C1)C2 1 µM [quencher, side channel, full curve, poor fit]
O=C(Nc1ccc(-n2cnnn2)cc1)C(c1ccccc1)c1ccccc1 25.1 µM [quencher, side channel, single point]
COc1ccc2c(c1)c(C(C)=O)c(C)n2-c1ccc(C(C)=O)cc1 35.5 µM [fluorescent, side channel, single point]
C=CCN1C(=O)C2(/C(=C(\O)c3ccc4c(c3)OCCO4)C(=O)C(=O)N2CCCOC)c2ccccc21 (stereo unspecified) 22.4 µM [inhibitor, single point]
CCCOc1cccc(C(=O)Nc2cccc(NC(=O)c3ccco3)c2)c1 28.2 µM [quencher, side channel, partial curve]
CCC(Sc1nc(-c2ccccc2)c(C#N)c(=O)[nH]1)C(=O)Nc1cc(C)on1 (stereo unspecified) 25.1 µM [quencher, side channel, single point]
O=C(O)c1ccc(Cl)c(S(=O)(=O)Nc2ccc(S(=O)(=O)Nc3cccc(Cl)c3)cc2)c1 25.1 µM [quencher, side channel, partial curve]
CCOc1cc(CNCC(C)C)c(Cl)cc1OCC(=O)Nc1ccccc1 25.1 µM [fluorescent, side channel, single point]
O=C1OCCN1C(=O)[C@H]1[C@H](c2ccccc2)C(c2ccccc2)=NN1c1ccccc1 3.98 µM [quencher, side channel, full curve]
O=C(Nc1ccc(Cl)cc1)N1CCN(c2ccc3nnc(-c4ccc(F)cc4)n3n2)CC1 10 µM [quencher, side channel, partial curve]
CCOC(=O)c1sc2nc(-c3ccco3)c3c(c2c1N)CC(C)(C)OC3 28.2 µM [quencher, side channel, single point]
Cc1cc(O)c(C=Nc2ccc(Cl)cn2)c(=O)o1 5.01 µM [fluorescent, side channel, single point]
CS(=O)(=O)N1CCN(c2ccc(NC(=O)c3ccccc3)cc2)CC1 20 µM [quencher, side channel, single point]
CC#CC(=O)N1CCC(CCc2ccccc2)(C(=O)OCC)CC1 7.08 µM [fluorescent, side channel, partial curve]
COc1cccc(Cn2cc(N)cn2)c1 28.2 µM [inhibitor, single point]
O=C1c2ccccc2-c2n[nH]c3cccc1c23 10 µM [quencher, side channel, partial curve] and 28.2 µM [quencher, side channel, partial curve]
CCOCC(=O)Nc1c(C(=O)N2CCN(c3ncccn3)CC2)oc2ccccc12 15.8 µM [inhibitor, single point]
COc1ccc(Nc2nc3[nH]c(=O)cc(O)c3s2)cc1 5.01 µM [quencher, side channel, full curve]
CCN(CC)c1ccc(/C=N/NC(=O)c2cccc(S(=O)(=O)Nc3ccccc3OC)c2)cc1 20 µM [quencher, side channel, partial curve]
O=C(N/N=C/c1ccc(Cl)cc1)c1nc2ccc([N+](=O)[O-])cc2c(=O)[nH]1 39.8 µM [quencher, side channel, single point]
CSc1nsc2nc(=O)c(/C=C3\C(C)=Nc4ccc(C)cc43)c(N)n12 14.1 µM [quencher, side channel, partial curve]
O=C(/C=C/c1ccc(-c2ccccc2[N+](=O)[O-])o1)c1ccco1 31.6 µM [quencher, side channel, partial curve]
COc1ccc(NC(=O)c2cc(-c3ccc(C)cc3O)n[nH]2)c(OC)c1 17.8 µM [quencher, side channel, partial curve]
CC1CCCN(S(=O)(=O)c2ccc(C(=O)Nc3nnc(C4=COCCO4)o3)cc2)C1 (stereo unspecified) 15.8 µM [quencher, side channel, partial curve]
Cc1ccc([N+](=O)[O-])cc1NC(=O)Nc1cccc(F)c1 12.6 µM [quencher, side channel, partial curve]
C=CCCC(=O)Nc1nc(C)c(-c2csc(Nc3ccc(Cl)cc3Cl)n2)s1 6.31 µM [quencher, side channel, partial curve]

FP activity change, negative = inhibition, inactive:
Cc1ccc(NC(=O)c2cc3ccccc3oc2=N)cc1 -9.59%
COc1cc(CCC(O)CC(=O)CCc2ccccc2)ccc1O (stereo unspecified) 14.9%
COc1ccc(OC)c(NC(=O)c2cnc(Nc3ccccc3OC)c3ccccc23)c1 3.84%
OCCCNc1nc(-c2ccccc2)c2cc(Br)ccc2n1 -16.9%
COc1cccc(-c2nccc(-n3ccnc3)n2)c1 0.0591%
CC(C)(C)NC(=O)Cn1nc(C(F)(F)F)c2c1CCCC2 -6.65%
